# In the supplement of paper PMC12217912:
# This is one part of the list. Sequences were assembled here from the parent chain. Inactive controls read about 0.05.
# B1: TEV protease; numbered along this chain (parent)
# chain: MGESLFKGPRDYNPISSSICHLTNESDGHTTSLYGIGFGPFIITNKHLFRRNNGTLVVQSLHGVFKVKDTTTLQQHLVDGRDMIIIRMPKDFPPFPQKLKFREPQREERICLVTTNFQTKSMSSMVSDTSCTFPSGDGIFWKHWIQTKDGQCGSPLVSTRDGFIVGIHSASNFTNTNNYFTSVPKNFMELLTNQEAQQWVSGWRLNADSVLWGGHKVFMVKPEEPFQPVKEATQL
# Variants of: B1
# Test: raw area under fraction-flipped curve 0-4 h after induction (AUC4h, not background-subtracted), DNA-recorder readout of cleavage of the substrate (dimensionless); higher = more cleavage of the substrate by the protease variant
# Details: temperature: 34 °C; time window: 0-4 h after rhamnose induction
# Method: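 In vivo DNA recorder in E. coli TOP10(DE3) ΔrhaA at 34 °C. Each TEVp single-site mutant (parent TEVp 0) is paired with a single-site variant of the 7-mer TEVs (canonical ENLYFQ|S). The substrate sits between flexible linkers in a Bxb1-sfGFP-TEVs-SsrA fusion, so cleavage stabilises Bxb1 and speeds flipping of a recombination array, read by NGS. The value is the raw area under the fraction-flipped curve over 0-4 h after rhamnose induction (AUC4h), with ≥20 reads per time point. It is not background-subtracted; inactive controls average about 0.047.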
# 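Note: Bxb1 expression induced with 0.2% (w/v) L-rhamnose at OD600 near 0.5, cultures sampled hourly, flipped fraction per protease–substrate barcode pair counted by paired-end Illumina sequencing.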
Variant,area with substrate EALYFQS,area with substrate ECLYFQS,area with substrate EELYFQS,area with substrate EGLYFQS,area with substrate EILYFQS,area with substrate ELLYFQS,area with substrate ETLYFQS,area with substrate EYLYFQS,area with substrate EDLYFQS,area with substrate EFLYFQS,area with substrate EHLYFQS,area with substrate EKLYFQS,area with substrate EMLYFQS,area with substrate EPLYFQS,area with substrate ESLYFQS,area with substrate EVLYFQS,area with substrate EQLYFQS,area with substrate ERLYFQS,area with substrate EWLYFQS
T132H,0.0698,0.0704,0.101,0.0653,0.0701,0.0752,0.0845,0.0715,,,,,,,,,,,
T132L,0.0877,0.0796,0.109,,0.088,0.0854,,,0.135,0.0975,0.0975,0.0765,0.0778,0.0967,0.092,0.0833,,,
T132P,0.0621,0.0661,,,,,,,,,,,0.0833,,0.0634,0.0629,0.0652,0.0669,0.0624
T132W,0.05,0.0544,0.0612,0.0715,0.0685,,,,0.0586,,0.0684,,,0.064,0.0665,0.051,,,
P134I,0.126,0.0951,0.0927,,0.0706,0.0925,0.0665,0.099,0.104,0.0759,,0.107,0.0964,0.109,0.0978,0.0867,,0.0856,0.111
P134K,0.118,0.102,,,0.0706,,0.165,,,,,0.0981,,,0.0958,,0.119,,0.0999
S135Q,0.0589,0.0931,0.0959,0.0675,0.0697,,0.0671,,0.0997,,,0.0678,,0.0936,0.0759,0.0678,0.0678,,
G136S,0.131,0.0483,0.128,,0.103,0.119,0.0945,,,,,0.102,0.127,0.115,0.0964,0.079,0.111,,
D137E,0.115,0.129,0.101,0.141,0.0658,0.0933,,,0.133,,,,0.121,,0.0875,,0.111,0.099,
G138D,0.104,0.0811,0.101,,0.111,,,,0.117,,0.113,0.0558,,,,,,,
I139D,0.12,0.0948,0.13,,0.0726,,0.112,0.103,0.115,0.1,,0.117,,0.0719,0.104,0.122,0.134,,
I139E,0.116,0.114,,0.131,0.108,,,,0.137,0.107,,,,,0.114,,0.122,,0.0963
I139H,0.117,0.0988,0.12,0.0884,0.119,,,0.106,0.128,0.105,,,0.101,,0.116,0.0814,,0.0865,
I139L,0.138,0.0929,,0.154,0.124,0.103,0.155,,0.129,0.1,0.123,0.109,,0.136,0.106,0.108,0.114,0.149,0.135
F140D,0.0313,0.0528,0.0067,0.066,0.0616,0.047,,,0.0654,0.0587,0.0688,0.0541,0.0556,0.0717,0.0493,0.0563,0.0619,0.0897,
W141T,0.0597,0.0701,0.055,0.061,0.0516,0.0698,0.0601,,0.0655,,,0.0637,0.0695,0.0632,0.07,0.0582,0.0581,,0.0666
W141V,0.0773,0.0709,0.0766,0.0738,0.0644,,,,0.0818,0.0664,0.107,0.067,,0.0932,0.0724,0.0696,0.0865,,
W141Y,0.112,0.0743,0.135,0.0835,,,,0.101,,,,0.0729,0.0578,,0.0753,,0.0958,0.0776,
K142C,0.0914,0.0934,0.128,0.0933,0.0858,0.0869,0.0715,0.0995,0.111,0.0716,,0.0862,,0.138,0.0873,0.0846,0.11,0.0896,0.136
K142V,0.119,0.1,0.11,,0.109,,,0.0563,,,0.107,0.111,0.0996,,0.111,,,0.0934,
H143I,0.0774,0.0652,0.0653,,,,,,,,,0.0508,0.082,0.064,,0.0554,0.0706,,0.0749
H143T,0.0973,0.0759,,,0.0793,,0.0896,,0.0929,,,,0.0855,,0.074,0.0781,,0.116,
I145H,0.104,0.0934,0.0969,0.122,0.0694,,,,,,0.0611,0.0684,,,0.0952,,,0.114,
I145W,0.0595,0.0494,0.0645,0.0551,0.0724,0.0765,,,0.0511,0.0499,,0.053,0.024,,0.0456,0.0582,0.0534,,0.0412
T147L,0.0863,0.0955,0.113,,0.0832,0.0706,0.105,,0.0918,,0.0659,,,,0.092,,0.0814,0.0741,
K148Y,0.128,0.115,0.0968,0.112,0.0672,,0.12,0.111,,0.106,,,,,0.0851,,0.13,,
D149C,0.122,0.0924,,,,,,,,,0.0946,0.118,0.125,,,0.0997,0.106,0.0896,
Q151A,0.115,0.0903,0.102,,,0.0974,,0.074,0.118,,0.119,0.107,,0.0968,,0.0858,0.123,0.12,0.0719
P155R,0.0662,0.0444,0.0497,,0.0463,0.0486,,,0.0533,0.0551,,0.0484,0.0501,0.0585,0.0568,,,0.0487,
V157M,0.119,0.034,,0.0829,0.0919,0.0856,0.088,,0.0867,,,0.0862,0.095,0.112,0.0946,0.106,0.0944,0.102,0.097
